Laboratory results reported in the supplement of paper PMC3334620.
Whole data set: some 33,000 sequences, median “E-score (-0.5 to 0.5)” near -0.032, cut for the highest 2% near 0.36. Some of the results follow.

molecular target: T1, Sko1 (UniProt Q02100); assay: PBM E-score (8-mer binding enrichment) (E-score (-0.5 to 0.5)); higher = stronger / more preferred TF binding; most listed sequences are background and not binding sites; settings: protein concentration: 200 nM; construct: GST-full length
T1 sequence: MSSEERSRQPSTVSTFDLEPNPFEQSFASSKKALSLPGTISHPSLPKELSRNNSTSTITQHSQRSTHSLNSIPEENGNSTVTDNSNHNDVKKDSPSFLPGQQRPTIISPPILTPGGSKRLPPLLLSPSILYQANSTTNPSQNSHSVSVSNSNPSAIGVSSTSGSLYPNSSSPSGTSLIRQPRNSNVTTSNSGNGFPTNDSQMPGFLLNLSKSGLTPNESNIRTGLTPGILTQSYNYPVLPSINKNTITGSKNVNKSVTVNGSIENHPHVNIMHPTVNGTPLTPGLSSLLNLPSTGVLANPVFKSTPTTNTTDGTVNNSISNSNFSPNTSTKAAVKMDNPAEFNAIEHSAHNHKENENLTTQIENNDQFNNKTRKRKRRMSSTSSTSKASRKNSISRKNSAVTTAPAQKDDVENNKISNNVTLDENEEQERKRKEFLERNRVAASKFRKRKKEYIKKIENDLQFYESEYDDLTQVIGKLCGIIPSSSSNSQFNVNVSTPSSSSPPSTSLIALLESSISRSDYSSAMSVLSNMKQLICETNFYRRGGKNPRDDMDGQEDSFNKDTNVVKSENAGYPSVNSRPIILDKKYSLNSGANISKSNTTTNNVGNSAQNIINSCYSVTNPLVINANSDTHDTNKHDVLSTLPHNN
How it was run: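 Full-length yeast transcription factors or their DNA-binding domains, GST-tagged and expressed with PURExpress, were applied at about 100-200 nM to universal all-10-mer Agilent arrays. These arrays had been made double-stranded by primer extension on fresh or once-stripped slides. Detection used fluorescent anti-GST, normalisation used masliner, and E-scores for ungapped eight-base words pooled with reverse complements came from the Universal PBM Analysis Suite.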

First: GAAACAAC
Second: ACTTTCTA
The “PBM E-score” value of the first is lower: -0.0259 for the first, 0.0803 for the second.

Compared with CGAGCTGC, AATGAGCG is higher in “PBM E-score” value: -0.24 for the first, 0.0936 for the second.

First: CGATATCC
Second: CGTATAAC
The “PBM E-score” value of the first is lower: 0.0777 for the first, 0.355 for the second.

First: ACGGCGTC
Second: AATTGGTG
The “PBM E-score” value of the first is lower: -0.0291 for the first, -0.00841 for the second.

Going from GCGTCCAC to GCTTAAAA, the “PBM E-score” value rises from -0.0966 to 0.0242.

Compared with CATTTCCA, ATACTGCC is lower in “PBM E-score” value: 0.0795 for the first, -0.108 for the second.

First: CCACCTTA
Second: CAGTGTCC
The “PBM E-score” value of the first is lower: -0.0986 for the first, -0.0405 for the second.

Compared with GTCAGGAA, ACGCTGAT is lower in “PBM E-score” value: 0.179 for the first, 0.174 for the second.

Going from AACCGGCT to GTAAAATA, the “PBM E-score” value rises from -0.357 to 0.184.

First: ATAGCTTG
Second: CTCGCCCC
The “PBM E-score” value of the first is higher: -0.0303 for the first, -0.256 for the second.

First: ATAATAAG
Second: TAGTAAGA
The “PBM E-score” value of the first is higher: 0.127 for the first, 0.0529 for the second.

Compared with AGGCTAAC, CGGCGGTC is lower in “PBM E-score” value: -0.0653 for the first, -0.32 for the second.

Going from CCTCACTC to CAACACCC, the “PBM E-score” value falls from -0.0833 to -0.18.

Compared with GTGTTGTA, CTCCAGAA is lower in “PBM E-score” value: 0.175 for the first, 0.058 for the second.

Going from ACATCTAT to AACAAGTC, the “PBM E-score” value falls from 0.21 to -0.0521.

Going from CTCGGGGA to AAGACATA, the “PBM E-score” value rises from -0.209 to 0.186.

First: GGACATAA
Second: AGCACCCC
The “PBM E-score” value of the first is higher: 0.0688 for the first, -0.265 for the second.

Going from GTGAGTTA to AGTGATGA, the “PBM E-score” value rises from 0.126 to 0.21.

Going from CGCGGGAA to ATGGGGCA, the “PBM E-score” value falls from -0.062 to -0.185.

First: CAACTGAA
Second: GGAGATCA
The “PBM E-score” value of the first is higher: 0.00872 for the first, -0.167 for the second.

Going from ACCCAGGC to CCGCCGAA, the “PBM E-score” value rises from -0.132 to -0.091.

Compared with CTCGCAAG, AGTATTAA is higher in “PBM E-score” value: 0.0771 for the first, 0.261 for the second.

Compared with CACGGGAC, GCCCAAGC is higher in “PBM E-score” value: -0.234 for the first, -0.124 for the second.

Going from AATGCGAC to AGTAGCGC, the “PBM E-score” value falls from 0.145 to -0.0271.

Going from GCTTGGAC to GGTCGCCA, the “PBM E-score” value falls from -0.317 to -0.327.

First: GCAGCCGC
Second: CTAAATTA
The “PBM E-score” value of the first is lower: -0.257 for the first, 0.2 for the second.

Compared with AAAACTTG, CGGGCCAC is lower in “PBM E-score” value: 0.0918 for the first, -0.187 for the second.

Compared with CCATCCTA, ACTAGTGA is higher in “PBM E-score” value: -0.104 for the first, 0.0867 for the second.

Going from ATTAACCC to TAGAATCA, the “PBM E-score” value rises from -0.0391 to 0.0343.

First: CTCCCTTA
Second: CCCATGTC
The “PBM E-score” value of the first is lower: -0.122 for the first, 0.0687 for the second.

Compared with CCCAATGA, AAGGTGCT is lower in “PBM E-score” value: 0.217 for the first, -0.238 for the second.

Going from TCGAAAGA to GACTAGGC, the “PBM E-score” value falls from 0.0545 to -0.0713.

Compared with CTAAGCAC, CTCCATCC is lower in “PBM E-score” value: 0.0719 for the first, -0.385 for the second.

First: AACAACCA
Second: GGTATGGA
The “PBM E-score” value of the first is higher: 0.109 for the first, -0.0634 for the second.

Compared with CATCACGG, ACGCGTAG is higher in “PBM E-score” value: 0.107 for the first, 0.259 for the second.

Going from ATACAAGA to GGATCTAC, the “PBM E-score” value rises from -0.0628 to -0.0498.

Going from AACTGACC to CGATGTAA, the “PBM E-score” value rises from -0.297 to 0.175.

First: GAACTGGC
Second: ACTACGCG
The “PBM E-score” value of the first is lower: -0.125 for the first, 0.245 for the second.

Going from AGACCACA to CCGAATCG, the “PBM E-score” value rises from -0.167 to -0.0905.

Going from AGAAGAGC to AAACGTCG, the “PBM E-score” value rises from -0.0561 to 0.238.

Going from AATTATGT to AGAGACGA, the “PBM E-score” value falls from 0.319 to 0.0256.

Compared with ACCGTTCC, CCGTGAGC is lower in “PBM E-score” value: -0.0907 for the first, -0.259 for the second.

Going from CACCAGTA to GCAGTGGC, the “PBM E-score” value falls from -0.0506 to -0.0897.

Compared with ATAGGGGC, TCAACCGA is higher in “PBM E-score” value: -0.106 for the first, 0.204 for the second.

Going from CAGTATGG to AAACTGGA, the “PBM E-score” value falls from -0.0599 to -0.119.

Going from CATTACAA to AAACATAT, the “PBM E-score” value falls from 0.223 to 0.192.

Going from CGATCGTC to CAGCGTAA, the “PBM E-score” value rises from 0.103 to 0.213.

Compared with CCACAGTC, AAGTGCCA is higher in “PBM E-score” value: -0.363 for the first, -0.119 for the second.

Compared with CGAAAAAC, GGATGCAA is lower in “PBM E-score” value: 0.117 for the first, -0.0635 for the second.

Compared with GTTGTGGA, CCCGTCCC is lower in “PBM E-score” value: 0.087 for the first, -0.344 for the second.

Compared with CGAGCATA, GTAACTGA is higher in “PBM E-score” value: -0.0609 for the first, 0.126 for the second.

Going from CAAGGCTC to AGGTAGGA, the “PBM E-score” value rises from -0.344 to -0.0889.

Compared with GACCTAAA, GAAAGCAA is higher in “PBM E-score” value: 0.0225 for the first, 0.0289 for the second.

Going from ACACGATA to TGGTCCAA, the “PBM E-score” value falls from 0.0915 to -0.135.

Compared with CTAGGGAG, CCGTAAGA is higher in “PBM E-score” value: -0.148 for the first, -0.0187 for the second.

First: CTAGAACA
Second: ACCTTAGC
The “PBM E-score” value of the first is higher: -0.0107 for the first, -0.0228 for the second.

Compared with GGGCCCCC, TGAGCGAA is higher in “PBM E-score” value: -0.394 for the first, 0.21 for the second.

Compared with AACCCCGA, AGGGTCAT is higher in “PBM E-score” value: -0.15 for the first, -0.0117 for the second.

Going from AGCGTACG to CTGGCTGA, the “PBM E-score” value falls from 0.214 to -0.185.

Going from GTGTAGTA to AACGTCGT, the “PBM E-score” value rises from -0.12 to 0.247.

Going from AGTCGCAA to ATTAATAG, the “PBM E-score” value rises from 0.0716 to 0.178.

Going from AAGGCCCT to CCCACCAA, the “PBM E-score” value falls from -0.0873 to -0.168.

First: CTCAAAGC
Second: AGTTGGAA
The “PBM E-score” value of the first is lower: -0.0911 for the first, -0.00844 for the second.

Compared with AATCGGTA, CATTCGCA is lower in “PBM E-score” value: 0.0551 for the first, 0.026 for the second.

Compared with GAATGTGA, TCACCTAA is higher in “PBM E-score” value: 0.118 for the first, 0.199 for the second.

Compared with GAGAGCTC, AATCGCGT is higher in “PBM E-score” value: -0.268 for the first, 0.234 for the second.

First: CTCCACTA
Second: ATCAGTTC
The “PBM E-score” value of the first is lower: -0.0474 for the first, -0.037 for the second.

First: AGATCCAG
Second: CGCCAGCA
The “PBM E-score” value of the first is lower: -0.202 for the first, -0.0811 for the second.

Compared with TATATGCA, CAACAACA is higher in “PBM E-score” value: 0.179 for the first, 0.238 for the second.

First: GTAGTAGA
Second: GCTGGCGA
The “PBM E-score” value of the first is higher: -0.00687 for the first, -0.203 for the second.

Compared with CGGAGCAG, ATGCCTCA is higher in “PBM E-score” value: -0.167 for the first, -0.104 for the second.

First: CAGTGGAC
Second: TAGTCGAA
The “PBM E-score” value of the first is lower: -0.0326 for the first, 0.03 for the second.

Going from AGTACGAA to ATGCCACC, the “PBM E-score” value falls from 0.312 to -0.316.

First: CGGCGAGA
Second: CTACATAC
The “PBM E-score” value of the first is lower: -0.106 for the first, 0.255 for the second.

First: ATTATAGC
Second: AATGCCAG
The “PBM E-score” value of the first is higher: 0.0343 for the first, -0.119 for the second.

First: CCTGCATC
Second: ACGATACT
The “PBM E-score” value of the first is lower: -0.1 for the first, 0.0296 for the second.

Compared with ATGCGTAG, GTCGTTCA is lower in “PBM E-score” value: 0.3 for the first, 0.0986 for the second.

First: GATTTAAC
Second: CTACGGCA
The “PBM E-score” value of the first is higher: 0.0539 for the first, -0.0673 for the second.

Going from CCGGCCAA to CTGTGTTA, the “PBM E-score” value rises from -0.324 to -0.0224.

Compared with GGTTTCTA, ATTATCCA is higher in “PBM E-score” value: 0.041 for the first, 0.103 for the second.

Going from CTGTAGGC to TCTCATCA, the “PBM E-score” value rises from -0.0381 to 0.162.

First: ATTAATCG
Second: ATCACTTA
The “PBM E-score” value of the first is lower: 0.108 for the first, 0.191 for the second.

First: GTGGGGCA
Second: GGCTCTGA
The “PBM E-score” value of the first is lower: -0.102 for the first, -0.0294 for the second.

First: CTACACTA
Second: GGTGTAAA
The “PBM E-score” value of the first is higher: -0.0982 for the first, -0.152 for the second.

Going from CACGTTAC to CTTACTTA, the “PBM E-score” value falls from 0.305 to 0.0934.

Going from ACAGGTCG to AACCAACC, the “PBM E-score” value rises from -0.23 to -0.221.
